Results on 61 compounds are retold here after patent US20240158408A1, “Nitrogen-Containing Heterocyclic Compound, Pharmaceutical Compositions thereof and Use thereof” (280 Bio, Inc., priority 2022, published 2024).

This assay addresses PI3Kα H1047R (Homo sapiens (Human), UniProt P42336, H1047R). To be noted: read-out: PI3KαH1047RIC50.
Setting [1] is: ADP-Glo, ATP 25 μM, PIP2 50 μg/mL, 1 hour at room temperature.

pIC50: −log10 of the molar value. Where two headings read alike, the source gives them in different places. Bounds are passed on as bounds.

In the case of `O=C1NC(c2cc(F)ccc2Cl)c2c(-c3nc4c(F)cc(C(F)(F)F)cc4[nH]3)ccc3c2N1CC3` (stereo not shown) [YL032], the pIC50 under setting [1] is > 6.60. Still for that read-out and setting: the same measure for `N#Cc1n[nH]cc1-c1cc(NC(=O)c2cc(F)cc(C(F)(F)F)c2)c2c3c1CCN3C(=O)NC2c1cc(F)ccc1Cl` (stereo not shown) [YL126]: > 6.60; for `Cn1nc(C(F)(F)F)cc1-c1cc(NC(=O)c2cc(F)cc(C(F)(F)F)c2)c2c3c1CCN3C(=O)NC2c1cc(F)ccc1Cl` (stereo not shown) [YL014]: > 6.60; for `Nc1n[nH]c2ccc(-c3cc(NC(=O)c4cc(F)cc(C(F)(F)F)c4)c4c5c3CCN5C(=O)NC4c3cc(F)ccc3Cl)cc12` (stereo not shown) [YL013]: > 6.60. With `N#Cc1cc(N)ncc1-c1cc(NC(=O)c2cc(F)cc(C(F)(F)F)c2)c2c3c1CCN3C(=O)NC2c1cc(F)ccc1Cl` (stereo not shown) [YL152], the pIC50 under setting [1] is > 6.60. Still for that read-out and setting: next, `Cc1cc(-c2cc(NC(=O)c3cc(F)cc(C(F)(F)F)c3)c3c4c2CCN4C(=O)NC3c2cc(F)ccc2Cl)n[nH]1` (stereo not shown) [YL070]: 5.00 to 6.60; `Nc1cc(-c2cc(Nc3nccc4c(C(F)(F)F)cc(F)cc34)c3c4c2CCN4C(=O)NC3c2cc(F)ccc2Cl)n[nH]1` (stereo not shown) [YL044]: > 6.60. In the case of `O=C(Nc1cc(-c2ccc3ncnn3c2C(F)(F)F)c2c3c1C(c1cc(F)ccc1Cl)NC(=O)N3CC2)c1cc(F)cc(C(F)(F)F)c1` (stereo not shown) [YL145], under setting [1], the pIC50 was > 6.60. `C[C@@H](O)C(=O)Nc1cc(NC(=O)c2cc(F)cc(C(F)(F)F)c2)c2c3c1CCN3C(=O)NC2c1cc(F)ccc1Cl` (stereo partly shown) [YL031]: the pIC50 under setting [1] is > 6.60. Still for that read-out and setting: next, `C[C@H](O)C(=O)Nc1cc(NC(=O)c2cc(F)cc(C(F)(F)F)c2)c2c3c1CCN3C(=O)NC2c1cc(F)ccc1Cl` (stereo partly shown) [YL030]: > 6.60. On the same count and under the same terms, next, `O=C(Nc1cc(Br)c2c3c1C(c1ccccc1Cl)NC(=O)N3CC2)c1cc(F)cc(C(F)(F)F)c1` (stereo not shown) [YL066]: 5.00 to 6.60. `CC(C)n1nc2ccc(NC(=O)c3cc(F)cc(C(F)(F)F)c3)c3c2c1C(=O)NC3c1cc(F)ccc1Cl` (stereo not shown) [YL118]: the pIC50 was > 6.60. As to `Cc1nc[nH]c1-c1cc(NC(=O)c2cc(F)cc(C(F)(F)F)c2)c2c3c1CCN3C(=O)NC2c1cc(F)ccc1Cl` (stereo not shown) [YL068], the pIC50 under setting [1] was > 6.60. Turning to `CCn1nc2ccc(NC(=O)c3cc(F)cc(C(F)(F)F)c3)c3c2c1C(=O)NC3c1cc(F)ccc1Cl` (stereo not shown) [YL115], the pIC50 was > 6.60. Turning to `C#Cc1cc(NC(=O)c2cc(F)cc(C(F)(F)F)c2)c2c3c1CCN3C(=O)NC2c1cc(F)ccc1Cl` (stereo not shown) [YL069], the pIC50 under setting [1] is 5.00 to 6.60.

Take `Cn1nc2ccc(NC(=O)c3cc(F)cc(C(F)(F)F)c3)c3c2c1C(=O)NC3c1cc(Cl)c(F)cc1Cl` (stereo not shown) [YL123]: under setting [1], the pIC50 was < 5.00. The same measure, in the same setting: next, `N#Cc1ncccc1-c1cc(NC(=O)c2cc(F)cc(C(F)(F)F)c2)c2c3c1CCN3C(=O)NC2c1cc(F)ccc1Cl` (stereo not shown) [YL136]: > 6.60; `O=C(Nc1cc(B(O)O)c2c3c1C(c1cc(F)ccc1Cl)NC(=O)N3CC2)c1cc(F)cc(C(F)(F)F)c1` (stereo not shown) [YL019]: > 6.60.

`O=C(Nc1cc(F)cc(C(F)(F)F)c1)Nc1cc(Br)c2c3c1C(c1cc(F)ccc1Cl)NC(=O)N3CC2` (stereo not shown) [YL122]: under setting [1], the pIC50 was > 6.60.

Turning to `O=C(Nc1cc(-c2ccc3ncnn3c2F)c2c3c1C(c1cc(F)ccc1Cl)NC(=O)N3CC2)c1cc(F)cc(C(F)(F)F)c1` (stereo not shown) [YL129], the pIC50 under setting [1] is 5.00 to 6.60. Same read-out and setting: next, `COc1c(-c2cc(NC(=O)c3cc(F)cc(C(F)(F)F)c3)c3c4c2CCN4C(=O)NC3c2cc(F)ccc2Cl)ccc2ncnn12` (stereo not shown) [YL146]: > 6.60; `N#Cc1c(-c2cc(NC(=O)c3cc(F)cc(C(F)(F)F)c3)c3c4c2CCN4C(=O)NC3c2cc(F)ccc2Cl)ccc2[nH]ncc12` (stereo not shown) [YL142]: > 6.60. On the same count and under the same terms, next, `N#Cc1ncccc1-c1cc(NC(=O)c2cc(F)cc(C(F)(F)F)c2)c2c3c1CCN3C(=O)NC2c1cc(Cl)ccc1Cl` (stereo not shown) [YL131]: < 5.00; `O=C(Nc1cc(-c2ccc3ncnn3c2)c2c3c1C(c1cc(F)ccc1Cl)NC(=O)N3CC2)c1cc(F)cc(C(F)(F)F)c1` (stereo not shown) [YL128]: > 6.60; `Cn1cc(-c2cc(NC(=O)c3cc(F)cc(C(F)(F)F)c3)c3c4c2CCN4C(=O)NC3c2cc(F)ccc2Cl)cn1` (stereo not shown) [YL015]: > 6.60. Turning to `O=C(Nc1cc(-c2c[nH]c3ncc(C(F)(F)F)cc23)c2c3c1C(c1cc(F)ccc1Cl)NC(=O)N3CC2)c1cc(F)cc(C(F)(F)F)c1` (stereo not shown) [YL036], the pIC50 under setting [1] was > 6.60.

Consider `O=C(Nc1cc(N2CC(F)(F)C2)c2c3c1C(c1cc(F)ccc1Cl)NC(=O)N3CC2)c1cc(F)cc(C(F)(F)F)c1` (stereo not shown) [YL012], for which the pIC50 under setting [1] is > 6.60. As to `N#Cc1ncncc1-c1cc(NC(=O)c2cc(F)cc(C(F)(F)F)c2)c2c3c1CCN3C(=O)NC2c1cc(F)ccc1Cl` (stereo not shown) [YL141], the pIC50 under setting [1] was > 6.60. Turning to `O=C(Nc1cc(NC2CC2)c2c3c1C(c1cc(F)ccc1Cl)NC(=O)N3CC2)c1cc(F)cc(C(F)(F)F)c1` (stereo not shown) [YL022], under setting [1], the pIC50 was > 6.60.

Take `N#Cc1c(N)cccc1-c1cc(NC(=O)c2cc(F)cc(C(F)(F)F)c2)c2c3c1CCN3C(=O)NC2c1cc(Cl)ccc1Cl` (stereo not shown) [YL132]: the pIC50 under setting [1] is > 6.60. Still for that read-out and setting: next, `N#Cc1ccc(-c2cc(NC(=O)c3cc(F)cc(C(F)(F)F)c3)c3c4c2CCN4C(=O)NC3c2cc(Cl)ccc2Cl)c(N)n1` (stereo not shown) [YL130]: 5.00 to 6.60. On the same count and under the same terms, the same measure for `O=C(Nc1cc(-c2cnc3[nH]cnc3c2Cl)c2c3c1C(c1cc(F)ccc1Cl)NC(=O)N3CC2)c1cc(F)cc(C(F)(F)F)c1` (stereo not shown) [YL147]: > 6.60. Still for that read-out and setting: the same measure for `O=C(Nc1cc(-c2ccc3ncnn3c2Br)c2c3c1C(c1cc(F)ccc1Cl)NC(=O)N3CC2)c1cc(F)cc(C(F)(F)F)c1` (stereo not shown) [YL139]: > 6.60. `O=C(Nc1cc(-c2c(C(F)(F)F)n[nH]c2-c2ccccc2)c2c3c1C(c1cc(F)ccc1Cl)NC(=O)N3CC2)c1cc(F)cc(C(F)(F)F)c1` (stereo not shown) [YL049]: under setting [1], the pIC50 is 5.00 to 6.60. Same read-out and setting: the same measure for `O=C1NC(c2cc(F)ccc2Cl)c2c(Nc3nccc4c(C(F)(F)F)cc(F)cc34)cc(Br)c3c2N1CC3` (stereo not shown) [YL042]: > 6.60; for `N#Cc1cc2ncnn2cc1-c1cc(NC(=O)c2cc(F)cc(C(F)(F)F)c2)c2c3c1CCN3C(=O)NC2c1cc(F)ccc1Cl` (stereo not shown) [YL153]: > 6.60.

As for `O=C1NC(c2cc(F)ccc2Cl)c2c(Nc3ncnc4cc(F)cc(F)c34)ccc3c2N1CC3` (stereo not shown) [YL051], under setting [1], the pIC50 was < 5.00.

As to `Cc1n[nH]c(C(F)(F)F)c1-c1cc(NC(=O)c2cc(F)cc(C(F)(F)F)c2)c2c3c1CCN3C(=O)NC2c1cc(F)ccc1Cl` (stereo not shown) [YL072], under setting [1], the pIC50 was > 6.60. The same measure, in the same setting: the same measure for `O=C1NC(c2cc(F)ccc2Cl)c2c(Nc3nccc4c(C(F)(F)F)cc(F)cc34)cc(F)c3c2N1CC3` (stereo not shown) [YL045]: 5.00 to 6.60.

With `N#Cc1nc(N)ncc1-c1cc(NC(=O)c2cc(F)cc(C(F)(F)F)c2)c2c3c1CCN3C(=O)NC2c1cc(F)ccc1Cl` (stereo not shown) [YL137], the pIC50 under setting [1] was > 6.60. Still for that read-out and setting: next, `O=C(Nc1cc(Nc2cnn(C3CCOCC3)c2)c2c3c1C(c1cc(F)ccc1Cl)NC(=O)N3CC2)c1cc(F)cc(C(F)(F)F)c1` (stereo not shown) [YL023]: > 6.60; `Nc1cc(-c2cc(NC(=O)c3cc(F)cc(C(F)(F)F)c3)c3c4c2CCN4C(=O)NC3c2cc(F)ccc2Cl)[nH]n1` (stereo not shown) [YL053]: > 6.60. On the same count and under the same terms, the same measure for `O=C(Nc1cc(-c2cnoc2)c2c3c1C(c1cc(F)ccc1Cl)NC(=O)N3CC2)c1cc(F)cc(C(F)(F)F)c1` (stereo not shown) [YL018]: > 6.60.

For the compound `Cc1ncc(-c2cc(NC(=O)c3cc(F)cc(C(F)(F)F)c3)c3c4c2CCN4C(=O)NC3c2cc(F)ccc2Cl)[nH]1` (stereo not shown) [YL067], the pIC50 under setting [1] is 5.00 to 6.60. Same read-out and setting: the same measure for `O=C(Nc1cc(Br)c2c3c1C(c1cc(F)ccc1Br)NC(=O)N3CC2)c1cc(F)cc(C(F)(F)F)c1` (stereo not shown) [YL063]: > 6.60; for `O=C(Nc1cc(F)c2c3c1C(c1cc(F)ccc1Cl)NC(=O)N3CC2)c1cc(F)cc(C(F)(F)F)c1` (stereo not shown) [YL021]: > 6.60. The same measure, in the same setting: the same measure for `O=C(Nc1cc(Br)c2c3c1C(c1cccc(F)c1)NC(=O)N3CC2)c1cc(F)cc(C(F)(F)F)c1` (stereo not shown) [YL062]: 5.00 to 6.60; for `Cc1cc(NC(=O)c2cc(F)cc(C(F)(F)F)c2)c2c3c1CCN3C(=O)NC2c1cc(F)ccc1Cl` (stereo not shown) [YL020]: 5.00 to 6.60. In the case of `O=C1NC(c2cc(F)ccc2Cl)c2c(Nc3ncnc4c(Cl)cc(F)cc34)ccc3c2N1CC3` (stereo not shown) [YL052], the pIC50 under setting [1] is 5.00 to 6.60.

On to `O=C(Nc1cc(-c2nn(Cc3ccccc3)cc2F)c2c3c1C(c1cc(F)ccc1Cl)NC(=O)N3CC2)c1cc(F)cc(C(F)(F)F)c1` (stereo not shown) [YL061], for which the pIC50 under setting [1] was 5.00 to 6.60.

As for `O=C1NC(c2cc(F)ccc2Cl)c2c(Nc3nccc4c(C(F)(F)F)cc(F)cc34)ccc3c2N1CC3` (stereo not shown) [YL050], the pIC50 under setting [1] was > 6.60. Same read-out and setting: the same measure for `O=C(Nc1cc(Br)c2c3c1C(c1ccccc1)NC(=O)N3CC2)c1cc(F)cc(C(F)(F)F)c1` (stereo not shown) [YL064]: 5.00 to 6.60; for `O=C(Nc1cc(-c2cn[nH]c2C(F)(F)F)c2c3c1C(c1cc(F)ccc1Cl)NC(=O)N3CC2)c1cc(F)cc(C(F)(F)F)c1` (stereo not shown) [YL071]: > 6.60. The same measure, in the same setting: next, `O=C(Nc1cc(NC(=O)C(F)(F)F)c2c3c1C(c1cc(F)ccc1Cl)NC(=O)N3CC2)c1cc(F)cc(C(F)(F)F)c1` (stereo not shown) [YL009]: > 6.60; `Nc1cc(NC(=O)c2cc(F)cc(C(F)(F)F)c2)c2c3c1CCN3C(=O)NC2c1cccc2ccccc12` (stereo not shown) [YL060]: 5.00 to 6.60; `O=C(Nc1cc(C(=O)O)c2c3c1C(c1cc(Cl)ncc1Cl)NC(=O)N3CC2)c1cc(F)cc(C(F)(F)F)c1` (stereo not shown) [YL127]: < 5.00. The same measure, in the same setting: the same measure for `N#Cc1c[nH]nc1-c1cc(NC(=O)c2cc(F)cc(C(F)(F)F)c2)c2c3c1CCN3C(=O)NC2c1cc(F)ccc1Cl` (stereo not shown) [YL125]: < 5.00; for `N#Cc1nc(F)ncc1-c1cc(NC(=O)c2cc(F)cc(C(F)(F)F)c2)c2c3c1CCN3C(=O)NC2c1cc(F)ccc1Cl` (stereo not shown) [YL143]: > 6.60. With `O=C(Nc1cc(NC2CCOCC2)c2c3c1C(c1cc(F)ccc1Cl)NC(=O)N3CC2)c1cc(F)cc(C(F)(F)F)c1` (stereo not shown) [YL028], the pIC50 under setting [1] is > 6.60. Still for that read-out and setting: next, `O=C(Nc1cc(-c2c(C(F)(F)F)n[nH]c2C2CC2)c2c3c1C(c1cc(F)ccc1Cl)NC(=O)N3CC2)c1cc(F)cc(C(F)(F)F)c1` (stereo not shown) [YL048]: > 6.60; `C#Cc1c(-c2cc(NC(=O)c3cc(F)cc(C(F)(F)F)c3)c3c4c2CCN4C(=O)NC3c2cc(F)ccc2Cl)ccc2ncnn12` (stereo not shown) [YL140]: > 6.60.
